Test results reported in the supplement of paper PMC4967469.
Lines with a small IC50 respond at low doses; where the fit passes the top or lowest dose, that dose stands as a limit. For AUC the same curve is integrated over the 256-fold range of doses and scaled to a fraction; the more sensitive the line, the further below 1. For some of these results: Any top dose called inferred is not printed in the source and was worked back from the curve model.

Assays:
Assay in all cases: Viability of human cancer cell lines after 72 h of drug (GDSC screen)
[1] = compound: CN(Cc1cnc2nc(N)nc(N)c2n1)c1ccc(C(=O)N[C@@H](CCC(=O)O)C(=O)O)cc1 [Methotrexate]; conditions: top dose 0.2 µM
Description: (§1)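 Human cancer cell lines in 384-well plates, medium with 10% serum, drug for 72 h over a 256-fold dose range (nine 2-fold or five 4-fold steps up to the top dose). Adherent lines were fixed and stained with the nucleic acid dye Syto60, suspension lines read with resazurin; signal relative to control wells, capped at 0 and 100%. One two-parameter sigmoid per drug and line, fitted in a mixed model over all curves with the slope shared within a line.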

[2] = compound: CC(C)(C)c1nc(-c2cccc(NS(=O)(=O)c3c(F)cccc3F)c2F)c(-c2ccnc(N)n2)s1 [Dabrafenib]; conditions: top dose 10 µM
Description: as §1

[3] = compound: CCc1c2c(nc3ccc(O)cc13)-c1cc3c(c(=O)n1C2)COC(=O)[C@]3(O)CC [SN-38]; conditions: top dose 0.05 µM; top dose inferred
Description: as §1

[4] = compound: CNC(=O)c1ccccc1Sc1ccc2c(/C=C/c3ccccn3)n[nH]c2c1 [Axitinib]; conditions: top dose 2 µM
Description: as §1

Cell Line	AUC [1]	IC50 [1] [nM]	AUC [2]	IC50 [2] [nM]	AUC [3]	IC50 [3] [nM]	AUC [4]	IC50 [4] [nM]
SK-N-SH (neuroblastoma, adherent)	0.986	> 200	0.976	> 10000	0.382	1.48	0.861	1660
L-363 (myeloma, suspension)	0.532	15.1	0.989	> 10000	0.93	> 50	0.966	> 2000
EB-3 (Burkitt lymphoma, suspension)	0.854	> 200	0.967	> 10000	0.815	33.3	0.984	> 2000
SAS (head and neck, adherent)	0.957	> 200	0.955	> 10000	0.288	0.726	0.961	> 2000
HAL-01 (lymphoblastic leukaemia, suspension)	0.255	2.76	0.602	1150	0.457	2.42	0.965	> 2000
MDA-MB-361 (breast, adherent)	0.986	> 200	0.983	> 10000	0.95	> 50	0.981	> 2000
CA46 (Burkitt lymphoma, suspension)	0.836	147	0.866	> 10000	0.898	> 50	0.984	> 2000
SNU-C1 (large intestine, suspension)	0.81	173	0.937	> 10000	0.917	> 50	0.979	> 2000
LCLC-97TM1 (large cell lung carcinoma, adherent)	0.894	> 200	0.911	> 10000	0.561	4.65	0.941	> 2000
EW-13 (Ewing sarcoma, suspension)	0.975	> 200	0.983	> 10000	0.746	17.3	0.983	> 2000
SU-DHL-4 (B-cell lymphoma, suspension)	0.997	> 200	0.997	> 10000	0.901	32.1	0.997	> 2000
WSU-DLCL2 (B-cell lymphoma, suspension)	0.548	16.5	0.984	> 10000	0.625	6.48	0.991	> 2000
KM-H2 (Hodgkin lymphoma, suspension)	0.967	> 200	0.987	> 10000	0.934	> 50	0.988	> 2000
REH (B-cell leukaemia, suspension)	0.566	18.8	0.941	> 10000	0.392	1.6	0.979	> 2000
ROS-50 (B-cell leukaemia, suspension)	0.979	> 200	0.983	> 10000	0.857	> 50	0.983	> 2000
KARPAS-299 (anaplastic large cell lymphoma, suspension)	0.445	9.09	0.979	> 10000	0.723	11.8	0.946	> 2000
NALM-6 (B-cell leukaemia, suspension)	0.659	31.8	0.988	> 10000	0.672	8.61	0.809	841
RXF393 (kidney, adherent)	0.978	> 200	0.816	8530	0.623	7.76	0.893	> 2000
Capan-2 (pancreas, adherent)	0.95	> 200	0.961	> 10000	0.954	> 50	0.985	> 2000
EB2 (Burkitt lymphoma, suspension)	0.751	60.5	0.984	> 10000	0.501	3.14	0.99	> 2000
HT-1376 (bladder, adherent)	0.981	> 200	0.933	> 10000	0.936	> 50	0.964	> 2000
MC116 (B-cell lymphoma, suspension)	0.99	> 200	0.999	> 10000	0.959	45.8	0.999	> 2000
NCI-H1581 (large cell lung carcinoma, semi-adherent)	0.988	> 200	0.956	> 10000	0.766	17	0.851	1350
SK-UT-1 (soft tissue, adherent)	0.987	> 200	0.96	> 10000	0.413	1.85	0.927	> 2000

Cell Line	AUC [1]	IC50 [1] [nM]	AUC [2]	IC50 [2] [nM]	AUC [3]	IC50 [3] [nM]	AUC [4]	IC50 [4] [nM]
UACC-893 (breast, adherent)	0.927	> 200	0.98	> 10000	0.808	37.2	0.975	> 2000
SW1271 (small cell lung carcinoma, adherent)	0.971	> 200	0.905	> 10000	0.721	14.7	0.953	> 2000
SiHa (cervix, adherent)	0.985	> 200	0.983	> 10000	0.783	24.7	0.945	> 2000
NCI-H292 (lung adenocarcinoma, adherent)	0.96	> 200	0.846	9720	0.569	5.03	0.817	1440
NCI-H1975 (lung adenocarcinoma, adherent)	0.977	> 200	0.797	5530	0.89	> 50	0.971	> 2000
HH (T-cell leukaemia, suspension)	0.649	37.4	0.846	> 10000	0.754	22	0.94	> 2000
LP-1 (myeloma, suspension)	0.988	> 200	0.989	> 10000	0.978	> 50	0.993	> 2000
MKN45 (stomach, adherent)	0.894	> 200	0.941	> 10000	0.758	21.7	0.918	> 2000
RCH-ACV (B-cell leukaemia, suspension)	0.592	21.2	0.981	> 10000	0.399	1.75	0.882	1480
OVTOKO (ovary, adherent)	0.836	187	0.813	7310	0.847	> 50	0.892	> 2000
HSC-39 (stomach, suspension)	0.979	> 200	0.974	> 10000	0.944	> 50	0.549	167
LB2241-RCC (kidney, adherent)	0.984	> 200	0.572	1010	0.555	4.49	0.954	> 2000
EGI-1 (biliary tract, adherent)	0.982	> 200	0.916	> 10000	0.744	19.7	0.941	> 2000
HT (B-cell lymphoma, suspension)	0.775	72.4	0.978	> 10000	0.872	41.1	0.987	> 2000
SAT (head and neck, adherent)	0.908	> 200	0.8	8370	0.807	45.3	0.835	> 2000
ST486 (Burkitt lymphoma, suspension)	0.671	35.2	0.989	> 10000	0.953	> 50	0.818	969
KY821 (leukaemia, suspension)	0.975	> 200	0.991	> 10000	0.751	14.6	0.927	> 2000
NCI-N87 (stomach, adherent)	0.97	> 200	0.85	> 10000	0.782	31.6	0.979	> 2000
GT3TKB (stomach, adherent)	0.977	> 200	0.962	> 10000	0.284	0.838	0.945	> 2000
KMRC-20 (kidney, adherent)	0.695	44.5	0.934	> 10000	0.829	31.7	0.978	> 2000
T84 (large intestine, adherent)	0.988	> 200	0.983	> 10000	0.875	> 50	0.989	> 2000
SUP-T1 (T-cell lymphoblastic leukaemia, suspension)	0.968	> 200	0.985	> 10000	0.401	1.72	0.979	> 2000
JEKO-1 (B-cell lymphoma, suspension)	0.578	20.2	0.932	> 10000	0.429	2.02	0.884	> 2000
